# The list shows a part of the results.
# B1: FGFR2-Fc (protein)
# chain: MVNVTDAISSGDDEDDTDGAEDFVSENSNNKRAPYWTNTEKMEKRLHAVPAANTVKFRCPAGGNPMPTMRWLKNGKEFKQEHRIGGYKVRNQHWSLIMESVVPSDKGNYTCVVENEYGSINHTYHLDVVERSPHRPILQAGLPANASTVVGGDVEFVCKVYSDAQPHIQWIKHVEKNGSKYGPDGLPYLKVLKHSGINSSNAEVLALFNVTEADAGEYICKVSNYIGQANQSAWLTVLPKQQAPGREKEITASPDYLETRPLEQKLISEEDLAANDILDYKDDDDKV
# Legend:
# Assay in all cases: glycan array binding signal (z-score within array); higher = stronger binding
# Settings in all cases: glycan notation: IUPAC condensed, linker removed
# [1] = biological target: Fuc(a1-3)[Gal3S(b1-4)]GlcNAc6S
# Procedure, shortened: (§1)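 Glycan array binding is given as a within-array Z-score, which can be read as non-binding when negative. The arrays, 3228 of them, came from the Consortium for Functional Glycomics database and were retained only where the protein sequence was available. Z-scores were averaged across arrays of the same protein sequence at different concentrations or buffers and across linkers.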
# [2] = biological target: Fuc(a1-3)[GalNAc(b1-4)]GlcNAc
# Procedure, shortened: as §1
# [3] = biological target: Fuc(a1-3)[GalNAc(b1-4)]GlcNAc6S
# Procedure, shortened: as §1
# Fuc(a1-4)GlcNAc = biological target: Fuc(a1-4)GlcNAc
# Procedure, shortened: as §1
# Fuc(b1-3)GlcNAc = biological target: Fuc(b1-3)GlcNAc
# Procedure, shortened: as §1
# Gal(a1-2)Gal = biological target: Gal(a1-2)Gal
# Procedure, shortened: as §1
# Gal(a1-3)Gal = biological target: Gal(a1-3)Gal
# Procedure, shortened: as §1
# Gal(a1-3)Gal(b1-3)GlcNAc = biological target: Gal(a1-3)Gal(b1-3)GlcNAc
# Procedure, shortened: as §1
# [4] = biological target: Gal(a1-3)Gal(b1-3)GlcNAc(b1-2)Man
# Procedure, shortened: as §1
# [5] = biological target: Gal(a1-3)Gal(b1-3)GlcNAc(b1-2)Man(a1-3)[Gal(a1-3)Gal(b1-3)GlcNAc(b1-2)Man(a1-6)]Man(b1-4)GlcNAc(b1-4)GlcNAc
# Procedure, shortened: as §1
# [6] = biological target: Gal(a1-3)Gal(b1-3)GlcNAc(b1-3)GalNAc
# Procedure, shortened: as §1
# [7] = biological target: Gal(a1-3)Gal(b1-3)GlcNAc(b1-6)GalNAc
# Procedure, shortened: as §1
# [8] = biological target: Gal(a1-3)Gal(b1-3)[Fuc(a1-4)]GlcNAc(b1-2)Man(a1-3)[Gal(a1-3)Gal(b1-3)[Fuc(a1-4)]GlcNAc(b1-2)Man(a1-6)]Man(b1-4)GlcNAc(b1-4)GlcNAc
# Procedure, shortened: as §1
# Gal(a1-3)Gal(b1-4)Glc = biological target: Gal(a1-3)Gal(b1-4)Glc
# Procedure, shortened: as §1
# Gal(a1-3)Gal(b1-4)GlcNAc = biological target: Gal(a1-3)Gal(b1-4)GlcNAc
# Procedure, shortened: as §1
# [9] = biological target: Gal(a1-3)Gal(b1-4)GlcNAc(b1-2)Man
# Procedure, shortened: as §1
# [10] = biological target: Gal(a1-3)Gal(b1-4)GlcNAc(b1-2)Man(a1-3)[Gal(a1-3)Gal(b1-4)GlcNAc(b1-2)Man(a1-6)]Man(b1-4)GlcNAc(b1-4)GlcNAc
# Procedure, shortened: as §1
# [11] = biological target: Gal(a1-3)Gal(b1-4)GlcNAc(b1-3)GalNAc
# Procedure, shortened: as §1
# [12] = biological target: Gal(a1-3)Gal(b1-4)GlcNAc(b1-6)GalNAc
# Procedure, shortened: as §1
# [13] = biological target: Gal(a1-3)Gal(b1-4)[Fuc(a1-3)]GlcNAc
# Procedure, shortened: as §1
# [14] = biological target: Gal(a1-3)Gal(b1-4)[Fuc(a1-3)]GlcNAc(b1-2)Man(a1-3)[Gal(a1-3)Gal(b1-4)[Fuc(a1-3)]GlcNAc(b1-2)Man(a1-6)]Man(b1-4)GlcNAc(b1-4)GlcNAc
# Procedure, shortened: as §1
# Gal(a1-3)GalNAc = biological target: Gal(a1-3)GalNAc
# Procedure, shortened: as §1
# [15] = biological target: Gal(a1-3)[Gal(a1-4)]Gal(b1-4)GlcNAc
# Procedure, shortened: as §1
# [16] = biological target: Gal(a1-4)Gal(b1-3)GlcNAc(b1-2)Man(a1-3)[Gal(a1-4)Gal(b1-3)GlcNAc(b1-2)Man(a1-6)]Man(b1-4)GlcNAc(b1-4)GlcNAc
# Procedure, shortened: as §1
# Gal(a1-4)Gal(b1-4)Glc = biological target: Gal(a1-4)Gal(b1-4)Glc
# Procedure, shortened: as §1
# Gal(a1-4)Gal(b1-4)GlcNAc = biological target: Gal(a1-4)Gal(b1-4)GlcNAc
# Procedure, shortened: as §1
# [17] = biological target: Gal(a1-4)Gal(b1-4)GlcNAc(b1-2)Man(a1-3)[Gal(a1-4)Gal(b1-4)GlcNAc(b1-2)Man(a1-6)]Man(b1-4)GlcNAc(b1-4)GlcNAc
# Procedure, shortened: as §1
# [18] = biological target: Gal(a1-4)Gal(b1-4)GlcNAc(b1-3)Gal(b1-4)Glc
# Procedure, shortened: as §1
# Gal(a1-4)GlcNAc = biological target: Gal(a1-4)GlcNAc
# Procedure, shortened: as §1
# Gal(a1-6)Glc = biological target: Gal(a1-6)Glc
# Procedure, shortened: as §1
# Gal(b1-2)Gal = biological target: Gal(b1-2)Gal
# Procedure, shortened: as §1
# Gal(b1-3)Gal = biological target: Gal(b1-3)Gal
# Procedure, shortened: as §1
# Gal(b1-3)Gal(b1-4)GlcNAc = biological target: Gal(b1-3)Gal(b1-4)GlcNAc
# Procedure, shortened: as §1
# Gal(b1-3)GalNAc = biological target: Gal(b1-3)GalNAc
# Procedure, shortened: as §1
# [19] = biological target: Gal(b1-3)GalNAc(a1-3)[Fuc(a1-2)]Gal(b1-4)Glc
# Procedure, shortened: as §1
# [20] = biological target: Gal(b1-3)GalNAc(a1-3)[Fuc(a1-2)]Gal(b1-4)GlcNAc
# Procedure, shortened: as §1
# Gal(b1-3)GalNAc(b1-3)Gal = biological target: Gal(b1-3)GalNAc(b1-3)Gal
# Procedure, shortened: as §1
# [21] = biological target: Gal(b1-3)GalNAc(b1-3)Gal(a1-4)Gal(b1-4)Glc
# Procedure, shortened: as §1
# [22] = biological target: Gal(b1-3)GalNAc(b1-4)Gal(b1-4)Glc
# Procedure, shortened: as §1
# [23] = biological target: Gal(b1-3)GalNAc(b1-4)[Neu5Ac(a2-3)]Gal(b1-4)Glc
# Procedure, shortened: as §1
# Gal(b1-3)GlcNAc = biological target: Gal(b1-3)GlcNAc
# Procedure, shortened: as §1
# [24] = biological target: Gal(b1-3)GlcNAc(a1-3)Gal(b1-4)GlcNAc
# Procedure, shortened: as §1
# [25] = biological target: Gal(b1-3)GlcNAc(a1-6)Gal(b1-4)GlcNAc
# Procedure, shortened: as §1
# Gal(b1-3)GlcNAc(b1-2)Man = biological target: Gal(b1-3)GlcNAc(b1-2)Man
# Procedure, shortened: as §1
# [26] = biological target: Gal(b1-3)GlcNAc(b1-2)Man(a1-3)[Gal(b1-3)GlcNAc(b1-2)Man(a1-6)]Man(b1-4)GlcNAc(b1-4)GlcNAc
# Procedure, shortened: as §1
binder,measurement,setting,value
B1,glycan array binding signal (z-score),[1],-0.073
same,glycan array binding signal (z-score),[2],0.028
same,glycan array binding signal (z-score),[3],-0.239
same,glycan array binding signal (z-score),Fuc(a1-4)GlcNAc,0.356
same,glycan array binding signal (z-score),Fuc(b1-3)GlcNAc,-0.312
same,glycan array binding signal (z-score),Gal(a1-2)Gal,-0.645
same,glycan array binding signal (z-score),Gal(a1-3)Gal,0.452
same,glycan array binding signal (z-score),Gal(a1-3)Gal(b1-3)GlcNAc,-0.278
same,glycan array binding signal (z-score),[4],-0.109
same,glycan array binding signal (z-score),[5],-0.44
same,glycan array binding signal (z-score),[6],-0.312
same,glycan array binding signal (z-score),[7],-0.722
same,glycan array binding signal (z-score),[8],-0.292
same,glycan array binding signal (z-score),Gal(a1-3)Gal(b1-4)Glc,-0.089
same,glycan array binding signal (z-score),Gal(a1-3)Gal(b1-4)GlcNAc,0.658
same,glycan array binding signal (z-score),[9],-0.781
same,glycan array binding signal (z-score),[10],0.17
same,glycan array binding signal (z-score),[11],-0.299
same,glycan array binding signal (z-score),[12],-0.228
same,glycan array binding signal (z-score),[13],-1.08
same,glycan array binding signal (z-score),[14],-0.096
same,glycan array binding signal (z-score),Gal(a1-3)GalNAc,-0.158
same,glycan array binding signal (z-score),[15],0.989
same,glycan array binding signal (z-score),[16],0.012
same,glycan array binding signal (z-score),Gal(a1-4)Gal(b1-4)Glc,-0.145
same,glycan array binding signal (z-score),Gal(a1-4)Gal(b1-4)GlcNAc,-0.307
same,glycan array binding signal (z-score),[17],0.803
same,glycan array binding signal (z-score),[18],-0.278
same,glycan array binding signal (z-score),Gal(a1-4)GlcNAc,-0.514
same,glycan array binding signal (z-score),Gal(a1-6)Glc,-0.488
same,glycan array binding signal (z-score),Gal(b1-2)Gal,-0.626
same,glycan array binding signal (z-score),Gal(b1-3)Gal,-0.344
same,glycan array binding signal (z-score),Gal(b1-3)Gal(b1-4)GlcNAc,-0.562
same,glycan array binding signal (z-score),Gal(b1-3)GalNAc,0.236
same,glycan array binding signal (z-score),[19],-0.334
same,glycan array binding signal (z-score),[20],-0.577
same,glycan array binding signal (z-score),Gal(b1-3)GalNAc(b1-3)Gal,-0.011
same,glycan array binding signal (z-score),[21],0.228
same,glycan array binding signal (z-score),[22],0.217
same,glycan array binding signal (z-score),[23],0.495
same,glycan array binding signal (z-score),Gal(b1-3)GlcNAc,-0.386
same,glycan array binding signal (z-score),[24],0.499
same,glycan array binding signal (z-score),[25],0.105
same,glycan array binding signal (z-score),Gal(b1-3)GlcNAc(b1-2)Man,0.58
same,glycan array binding signal (z-score),[26],0.547
